The campaign covered roughly 380,000 compounds. About 4,000 (1.1%) were called active. Inconclusive means that the source gave no clear call. Such entries were picked first, then a sample of the others. Calls come from the whole dose curve; as a rule, active = well fitted activation curve with a large enough effect; inconclusive = small, poorly fitted or top-dose-only effect; inactive = no such curve, though single readings can be large or run the other way. Potencies beside an inconclusive call are fits to weak or partial responses and may not hold up.
Assay: qHTS Assay to Identify Small Molecule Activators of BRCA1 Expression; note: nearly all actives have a fitted effect of over 80% in size
Settings: MCF7-BRCA1-FFLuc reporter, luminescence, 48 h; activation: at 46.1 µM (top of the series), scaled: vehicle 0%, 10 µM genistein 100% unless noted
Outline: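 Quantitative HTS in MCF7 cells stably reporting BRCA1 expression via firefly luciferase. Compound treatment lasts 48 h at 37 °C in phenol-red free MEM. Activation is expressed relative to genistein at 10 microM and DMSO.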
In the case of `COC(=O)c1ccc(COC(=O)CNC(=O)c2ccc(OC)cc2)cc1`, the Potency is reported as active: 5.01 µM.
In the case of `COc1ccc(C(=O)NCCn2cc(SCC(=O)Nc3cc(C)on3)c3ccccc32)cc1OC`, the Potency is reported as “inactive”.
With `Cc1ccc(SCC(=O)Nc2ccc(-c3nc4ccccc4[nH]3)cc2)cc1` the Potency was active: 3.55 µM.
In the case of `CCOC(=O)c1sc(NC(=O)Nc2ccc(F)cc2)nc1C`, the Potency is reported as inconclusive: 0.631 µM [activator, full curve, poor fit].
In the case of `CCOC(=O)c1cc2cc(C)ccc2[nH]1`, the Potency is reported as inconclusive: 25.1 µM [activator, partial curve, poor fit].
In the case of `Cn1c(-c2ccc(Br)o2)nc2cc(Br)ccc21`, the Potency is reported as inconclusive: 7.08 µM [activator, full curve, poor fit].
With `Cc1c(C(=O)Nc2ccc3c(c2)CCC3)cccc1[N+](=O)[O-]` the Potency was inconclusive: 12.6 µM [activator, partial curve, poor fit].
With `O=C(Nc1nnc(CCc2ccccc2)s1)c1cccc(F)c1` the Potency was inconclusive: 11.2 µM [activator, partial curve, poor fit].
With `CS(=O)(=O)N1CCc2cc(C(=O)Nc3ccccc3Cl)ccc21` the Potency was inconclusive: 3.16 µM [activator, partial curve, poor fit].
With `O=C(Nc1ccc2c(c1)Cc1ccccc1-2)c1ccc(Br)o1` the Potency was inconclusive: 10 µM [activator, partial curve, poor fit].
In the case of `S=C(NCCc1ccccc1)N/N=C/c1ccc(Cl)cc1`, the Potency is reported as “inactive”.
With `CC1(C)Cc2c(C#N)c(N3CCOCC3)nc(-c3ccccc3)c2CO1` the Potency was “inactive”.
In the case of `Cc1ccc(-c2onc3ccc(C(=O)O)cc23)cc1`, the Potency is reported as “inactive”.
In the case of `Cn1cc(Cl)c(C(=O)OCC(=O)Nc2nc(-c3ccc(Br)cc3)cs2)n1`, the Potency is reported as active: 11.2 µM.
In the case of `COc1ccc(-c2noc(-c3ccc(Cl)cc3)n2)cc1`, the Potency is reported as inconclusive: 1.78 µM [activator, full curve, poor fit].
In the case of `C#CCOc1ccc(/C=C2/C(=O)ON=C2C)cc1Cl`, the Potency is reported as “inactive”.
For `CC(=O)OCCCN1c2ccccc2Nc2nnc(-c3ccccc3)cc21`, the Potency was inconclusive: 1.12 µM [activator, full curve, poor fit].
In the case of `C/C(=N/NC(=O)c1ccc(Br)o1)c1cccs1`, the Potency is reported as inconclusive: 5.01 µM [activator, full curve, poor fit].
For `COc1ccc(C2=CC(=O)CC(c3ccc(OC)cc3)C2)cc1` (stereo not given), the Potency was inconclusive: 3.55 µM [activator, partial curve, poor fit].
With `CCNCCNC(=O)c1c(O)c2ccccc2n(CC)c1=O` the Potency was “inactive”.

Reference: PubChem BioAssay AID624202 (National Center for Advancing Translational Sciences (NCATS), 2012)
Potency is the fitted concentration of half-maximal effect; tags give direction and shape of the fitted curve.
